# Where “and” joins values, the source holds several entries; their conditions need not be identical. Identical values can stand only once. The shares of active, inactive and inconclusive entries below differ from those in the screen. For some of these results: A potency beside an inconclusive call is a rough fit, not a confirmed value. A structure can be active in one record and inactive in another. Calls of active or inactive are those of the source. Unless noted, calls come from the whole dose curve; as a rule, active = well fitted curve in the direction sought with a large enough effect in the repeat runs; inconclusive = weak or mixed curves; inactive = no such curve, though single readings can be large; an effect the other way counts as inactive or inconclusive.
# Experiments:
# [1] = target: Thyrotropin-releasing hormone receptor (Homo sapiens) (UniProt P34981); test: qHTS assay to identify small molecule agonists of the thyrotropin-releasing hormone receptor (TRHR) signaling pathway (AID 1346891; calls by dose curve; note: potency is the fitted concentration of half-maximal effect;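 for activation: HEK293 cells expressing TRHR with calcium dye readout; % is set by controls: 0 for no effect and ±100 for the full control effect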)
# Chain of UniProt P34981 (P34981 whole entry, looked up): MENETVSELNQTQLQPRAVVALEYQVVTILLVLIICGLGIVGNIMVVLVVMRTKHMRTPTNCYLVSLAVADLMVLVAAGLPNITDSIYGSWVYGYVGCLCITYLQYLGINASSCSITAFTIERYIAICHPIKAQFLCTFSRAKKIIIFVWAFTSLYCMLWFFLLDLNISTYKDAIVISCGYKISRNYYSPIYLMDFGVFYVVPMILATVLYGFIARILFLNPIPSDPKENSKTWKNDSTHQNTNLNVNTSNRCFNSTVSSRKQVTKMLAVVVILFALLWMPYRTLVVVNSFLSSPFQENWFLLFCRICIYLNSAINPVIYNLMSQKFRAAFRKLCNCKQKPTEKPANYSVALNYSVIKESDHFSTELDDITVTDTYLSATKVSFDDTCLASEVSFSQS
# Procedure, shortened: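 Kinetic fluorescence (3 min, 1 s intervals) reported intracellular calcium after compound transfer onto TRHR-Hek293 cells pre-loaded with dye for 2 h at 37 °C.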
# [2] = qHTS assay to identify small molecule antagonists of the TGF-beta/Smad signaling pathway (AID 1346924; active = well fitted inhibition curve with a large enough effect in the signal ratio in the repeat runs, not every such curve was filed as active; inconclusive = weak or mixed curves; the % refers to the signal ratio; note: potency is the fitted concentration of half-maximal effect); conditions: SBE-bla HEK293T, TGF-beta/Smad reporter, beta-lactamase ratio
# Procedure, shortened: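 SBE-bla HEK 293T cells were plated overnight, then received compound in DMSO plus TGF-beta1 (added as a 0.25 ng/mL solution) and were incubated 5 h at 37 C. Beta-lactamase reporter activity was read after 2 h at room temperature with LiveBLAzer B/G FRET substrate (ex 405, em 460/530 nm).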
# [3] = Human pregnane X receptor (PXR) small molecule agonists, qHTS cell viability counter screen (AID 1346977); note: nearly all actives have a fitted effect of over 50% in size; note: potency is the fitted concentration of half-maximal effect
# Procedure, shortened: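 HepG2 cells stably carrying the PXR-Luc reporter are cultured with 5% charcoal-stripped FBS and treated with compounds for 24hr. CellTiter-Fluor is added at 23hr and fluorescence is read after 1hr.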
# [4] = Caspase-3/7 induction in HepG2 cells by small molecules, qHTS cell viability counter screen (AID 1346981); note: potency is the fitted concentration of half-maximal effect; nearly all actives have a fitted effect of over 30% in size
# Procedure, shortened: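 Wild-type HepG2 cells (2,000/well) were allowed to settle for 5 hr at 37 C, 5% CO2, then dosed with compounds in DMSO by pin transfer. After 16 hr at 37 C, CellTiter-Fluor was added and fluorescence read 1 hr later.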
# [5] = target: Nuclear receptor subfamily 1 group I member 2 (Homo sapiens) (UniProt O75469); test: CYP3A4 induction through human pregnane X receptor (PXR) by small molecules, qHTS assay (AID 1346984); note: potency is the fitted concentration of half-maximal effect; nearly all actives have a fitted effect of over 40% in size
# Procedure, shortened: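 DPX-2 cells (HepG2 co-transfected with PXR and CYP3A4 promoter-luciferase) treated with compounds 24 h at 37C; luciferin-IPA CYP3A4 substrate 3uM final added for 3 h, then One-Glo; luminescence read. qHTS format.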
# [6] = target: Nuclear receptor subfamily 1 group I member 2 (Homo sapiens) (UniProt O75469); test: Human pregnane X receptor (PXR) activation by small molecules, qHTS assay (AID 1346985); note: potency is the fitted concentration of half-maximal effect; nearly all actives have a fitted effect of over 40% in size
# Procedure, shortened: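 DPX-2 cells (HepG2 co-transfected with a PXR response element and a CYP3A4-promoter luciferase construct) were seeded at 2,000 per well, rested 5 hr at 37C, then exposed to DMSO-dissolved compounds for 24 hr. Activation was read as luciferase luminescence.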
# [7] = target: Cytochrome P450 2D6 (Homo sapiens) (UniProt P10635); test: Cytochrome P450 Family 2 Subfamily D Member 6 (CYP2D6) small molecule antagonists: luciferase reporter qHTS assay (AID 1671196); note: nearly all actives have a fitted effect of over 50% in size; note: potency is the fitted concentration of half-maximal effect
# Chain of UniProt P10635 (P10635 whole entry, looked up): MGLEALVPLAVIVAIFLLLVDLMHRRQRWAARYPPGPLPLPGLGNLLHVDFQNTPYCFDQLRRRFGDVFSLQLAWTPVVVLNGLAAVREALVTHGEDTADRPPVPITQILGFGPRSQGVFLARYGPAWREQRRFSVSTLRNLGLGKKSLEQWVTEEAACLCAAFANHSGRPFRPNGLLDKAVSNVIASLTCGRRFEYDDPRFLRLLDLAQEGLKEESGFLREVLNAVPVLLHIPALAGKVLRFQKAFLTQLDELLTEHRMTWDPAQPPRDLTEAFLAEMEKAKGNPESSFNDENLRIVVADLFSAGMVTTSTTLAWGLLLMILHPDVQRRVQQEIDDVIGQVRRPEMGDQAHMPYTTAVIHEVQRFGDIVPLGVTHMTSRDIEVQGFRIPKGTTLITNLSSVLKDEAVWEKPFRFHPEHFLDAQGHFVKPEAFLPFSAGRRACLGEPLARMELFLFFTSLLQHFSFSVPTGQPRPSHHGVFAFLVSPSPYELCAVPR
# Procedure, shortened: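 CYP2D6 enzyme–substrate mix was held with compound for 10 min at room temperature, then NADPH regeneration solution was added and the reaction ran 1 h at room temperature. Luciferin product was detected by luminescence after 20 min with detection reagent.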
# [8] = target: Cytochrome P450 1A2 (Homo sapiens) (UniProt P05177); test: Cytochrome P450 Family 1 Subfamily A Member 2 (CYP1A2) small molecule antagonists: luciferase reporter qHTS assay (AID 1671199); note: nearly all actives have a fitted effect of over 50% in size; note: potency is the fitted concentration of half-maximal effect
# Chain of UniProt P05177 (P05177 whole entry, looked up): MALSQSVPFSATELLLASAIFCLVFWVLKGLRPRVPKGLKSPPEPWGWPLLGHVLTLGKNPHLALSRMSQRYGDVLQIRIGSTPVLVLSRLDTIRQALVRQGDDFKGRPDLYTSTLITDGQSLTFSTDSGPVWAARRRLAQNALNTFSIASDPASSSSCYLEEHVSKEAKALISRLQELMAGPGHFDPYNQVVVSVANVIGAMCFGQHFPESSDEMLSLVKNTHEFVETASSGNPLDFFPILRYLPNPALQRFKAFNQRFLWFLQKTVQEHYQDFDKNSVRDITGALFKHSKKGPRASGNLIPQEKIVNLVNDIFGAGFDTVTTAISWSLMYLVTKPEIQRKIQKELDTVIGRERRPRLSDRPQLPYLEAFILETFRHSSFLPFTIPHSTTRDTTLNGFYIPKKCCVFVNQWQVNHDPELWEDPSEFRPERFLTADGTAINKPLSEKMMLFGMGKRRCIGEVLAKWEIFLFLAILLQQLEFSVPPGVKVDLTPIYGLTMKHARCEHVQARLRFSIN
# Procedure, shortened: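 Human CYP1A2 activity measured with a P450-Glo proluciferin substrate; compounds in DMSO preincubated 10 min at room temperature with enzyme-substrate mix, then NADPH regeneration system added for 1 h. Luciferin detection reagent, 20 min, luminescence read.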
# [9] = Caspase-3/7 induction in CHO-K1 cells by small molecules, qHTS cell viability counter screen (AID 1346979); note: nearly all actives have a fitted effect of over 35% in size; note: potency is the fitted concentration of half-maximal effect
# Procedure, shortened: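 Seeding: 1,500 CHO-K1 cells/well. Rest: 5hr, 37C. Treatment: compounds in DMSO, 16hr. Read: CellTiter-Fluor, 1hr, fluorescence.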
# [10] = target: Nuclear receptor subfamily 1 group I member 2 (Homo sapiens) (UniProt O75469); test: Human pregnane X receptor (PXR) small molecule agonists, qHTS assay (AID 1346982); note: potency is the fitted concentration of half-maximal effect; nearly all actives have a fitted effect of over 35% in size
# Procedure, shortened: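 PXR-Luc HepG2 cells (CYP3A4 promoter-driven luciferase) were seeded in medium with 5% charcoal-stripped FBS, left 5 hr at 37 C, then exposed to compounds in DMSO for 24 hr. Luminescence was read after ONE-Glo addition.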
# [11] = target: Voltage-gated inwardly rectifying potassium channel KCNH2 (Homo sapiens) (UniProt Q12809); test: Human Ether-a-go-go-Related Gene (hERG) channel small molecule antagonists: fluorescence cell-based qHTS assay (AID 1671200); note: potency is the fitted concentration of half-maximal effect; nearly all actives have a fitted effect of over 50% in size
# Chain of UniProt Q12809 (Q12809 whole entry, looked up): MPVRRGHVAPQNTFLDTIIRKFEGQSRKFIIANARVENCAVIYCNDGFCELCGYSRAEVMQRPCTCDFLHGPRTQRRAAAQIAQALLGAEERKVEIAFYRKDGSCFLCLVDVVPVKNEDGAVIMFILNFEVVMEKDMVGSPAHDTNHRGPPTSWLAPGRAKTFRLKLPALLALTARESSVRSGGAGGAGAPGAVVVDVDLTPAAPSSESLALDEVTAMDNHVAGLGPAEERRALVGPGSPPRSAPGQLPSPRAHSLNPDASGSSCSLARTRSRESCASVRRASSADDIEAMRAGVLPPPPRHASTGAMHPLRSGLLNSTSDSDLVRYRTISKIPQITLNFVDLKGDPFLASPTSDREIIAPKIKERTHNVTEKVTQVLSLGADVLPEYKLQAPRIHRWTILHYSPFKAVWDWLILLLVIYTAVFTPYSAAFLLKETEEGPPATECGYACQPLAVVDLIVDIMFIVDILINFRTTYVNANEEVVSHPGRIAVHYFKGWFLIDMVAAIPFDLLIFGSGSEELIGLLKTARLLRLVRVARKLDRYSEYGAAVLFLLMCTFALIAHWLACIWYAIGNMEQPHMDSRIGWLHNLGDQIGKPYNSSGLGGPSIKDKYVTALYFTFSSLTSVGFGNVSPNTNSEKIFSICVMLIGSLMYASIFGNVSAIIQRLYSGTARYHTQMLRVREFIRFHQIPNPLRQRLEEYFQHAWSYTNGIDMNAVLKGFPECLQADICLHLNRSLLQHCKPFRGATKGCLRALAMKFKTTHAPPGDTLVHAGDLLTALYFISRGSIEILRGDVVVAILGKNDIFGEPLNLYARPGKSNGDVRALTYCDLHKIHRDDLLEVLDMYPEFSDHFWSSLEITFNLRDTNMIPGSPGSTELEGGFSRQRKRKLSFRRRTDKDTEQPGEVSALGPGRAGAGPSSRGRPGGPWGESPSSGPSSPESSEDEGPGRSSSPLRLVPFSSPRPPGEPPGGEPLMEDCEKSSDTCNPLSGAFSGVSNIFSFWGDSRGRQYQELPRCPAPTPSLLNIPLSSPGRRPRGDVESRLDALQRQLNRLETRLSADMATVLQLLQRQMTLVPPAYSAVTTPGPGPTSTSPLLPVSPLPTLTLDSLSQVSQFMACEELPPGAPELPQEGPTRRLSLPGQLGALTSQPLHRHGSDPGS
# Procedure, shortened: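 First, 1000 cells per well are seeded and cultured overnight at 37 C. Next, FluxOR II dye is loaded for 1 h at room temperature, protected from light. After 10 more minutes, stimulus is added and fluorescence is read.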
# [12] = Caspase-3/7 induction in CHO-K1 cells by small molecules, qHTS assay (AID 1346980); note: potency is the fitted concentration of half-maximal effect; nearly all actives have a fitted effect of over 15% in size
# Procedure, shortened: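 Wild-type CHO-K1 cells exposed to compounds for 17hr at 37 C, 5% CO2. Caspase-3/7 activity then measured by Caspase-Glo 3/7 luminescence after 30min at room temperature.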
# [13] = target: Cytochrome P450 2C9 (Homo sapiens) (UniProt P11712); test: Cytochrome P450 Family 2 Subfamily C Member 9 (CYP2C9) small molecule antagonists: luciferase reporter qHTS assay (AID 1671198)
# Chain of UniProt P11712 (P11712 whole entry, looked up): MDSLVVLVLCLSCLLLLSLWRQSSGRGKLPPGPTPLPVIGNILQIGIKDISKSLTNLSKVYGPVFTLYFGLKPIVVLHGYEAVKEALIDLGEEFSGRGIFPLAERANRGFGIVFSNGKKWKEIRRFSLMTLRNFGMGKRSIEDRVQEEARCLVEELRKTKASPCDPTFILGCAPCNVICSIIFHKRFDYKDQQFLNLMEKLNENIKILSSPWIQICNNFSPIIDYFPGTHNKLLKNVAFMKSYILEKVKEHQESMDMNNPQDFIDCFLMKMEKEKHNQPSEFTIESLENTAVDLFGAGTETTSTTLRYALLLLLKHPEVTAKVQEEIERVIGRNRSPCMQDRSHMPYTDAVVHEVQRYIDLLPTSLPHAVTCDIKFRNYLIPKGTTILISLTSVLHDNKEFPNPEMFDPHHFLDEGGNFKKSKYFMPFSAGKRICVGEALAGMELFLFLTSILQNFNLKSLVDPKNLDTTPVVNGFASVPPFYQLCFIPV
# Procedure, shortened: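 P450-Glo proluciferin substrate with CYP2C9 enzyme; 10 min RT preincubation, then NADPH regeneration 1 h at 37C; luciferin detection reagent 20 min RT, luminescence in relative luminescence units.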
# [14] = target: Cytochrome P450 3A4 (Homo sapiens) (UniProt P08684); test: Cytochrome P450 Family 3 Subfamily A Member 4 (CYP3A4) small molecule antagonists: luciferase reporter qHTS assay (AID 1671201)
# Chain of UniProt P08684 (P08684 whole entry, looked up): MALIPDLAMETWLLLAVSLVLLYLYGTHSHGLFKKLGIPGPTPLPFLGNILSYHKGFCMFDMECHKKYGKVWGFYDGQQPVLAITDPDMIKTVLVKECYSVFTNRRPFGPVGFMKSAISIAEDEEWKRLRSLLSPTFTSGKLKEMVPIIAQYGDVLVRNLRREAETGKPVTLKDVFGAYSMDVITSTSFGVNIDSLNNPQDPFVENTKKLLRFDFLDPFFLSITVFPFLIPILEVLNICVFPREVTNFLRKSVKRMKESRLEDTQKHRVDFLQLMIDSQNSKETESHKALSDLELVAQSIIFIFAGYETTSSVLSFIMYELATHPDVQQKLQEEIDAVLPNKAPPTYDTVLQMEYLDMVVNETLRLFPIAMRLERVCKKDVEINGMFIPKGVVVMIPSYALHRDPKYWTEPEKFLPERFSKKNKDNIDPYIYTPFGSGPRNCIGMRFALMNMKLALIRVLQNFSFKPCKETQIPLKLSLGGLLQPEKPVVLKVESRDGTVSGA
# Procedure, shortened: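 Enzyme and proluciferin substrate are mixed with test chemicals for 10 min, then NADPH regeneration system drives turnover for 1 h at room temperature. A detection reagent halts the reaction; luminescence after 20 min gives relative activity.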
# [15] = target: Nuclear receptor subfamily 1 group I member 2 (Rattus norvegicus) (UniProt Q9R1A7); test: Rat pregnane X receptor (rPXR) activation by small molecules, qHTS assay (AID 1346983); conditions: rPXR luciferase reporter cells, One-Glo luminescence, 24 h; max activation: stronger effect = higher value; note: potency is the fitted concentration of half-maximal effect; nearly all actives have a fitted effect of over 20% in size
# Chain of UniProt Q9R1A7 (Q9R1A7 whole entry, looked up): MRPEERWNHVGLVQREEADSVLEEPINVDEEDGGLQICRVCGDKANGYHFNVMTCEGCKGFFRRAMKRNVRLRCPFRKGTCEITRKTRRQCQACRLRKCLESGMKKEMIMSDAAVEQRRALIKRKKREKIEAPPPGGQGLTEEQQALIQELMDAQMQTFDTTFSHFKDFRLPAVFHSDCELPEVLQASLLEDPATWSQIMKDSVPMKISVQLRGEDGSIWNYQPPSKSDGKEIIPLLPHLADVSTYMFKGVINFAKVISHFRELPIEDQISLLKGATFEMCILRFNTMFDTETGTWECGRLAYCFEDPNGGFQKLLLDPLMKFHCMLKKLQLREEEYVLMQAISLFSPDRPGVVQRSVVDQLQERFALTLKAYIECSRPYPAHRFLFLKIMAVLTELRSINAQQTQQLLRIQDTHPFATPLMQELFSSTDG
# Procedure, shortened: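 Cell-based rPXR activation assay: rPXR cells, 2,000 per well, rested 5hr at 37 C, then exposed to compounds in DMSO for 24 hr at 37 C. Luciferase activity read by One-Glo luminescence after 30 min at room temperature.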
# [16] = activity, negative = inhibition: at 76.8 µM (top of the series) unless noted
# Tags give direction and shape of the fitted curve or compound fluorescence and quenching.
smiles,measurement,setting,value
CCCc1c(OCCCCc2nn[nH]n2)ccc(C(C)=O)c1O,Potency,[1],"inconclusive: 10.7 µM [activator, partial curve, poor fit]"
same,Potency,[2]; [16],"inconclusive: 5.49 µM [fluorescent, full curve]"
same,"activity, negative = inhibition",[2]; [16],inconclusive: 2.07% [at 35.3 µM]
O=C1c2ccccc2Cc2ccccc21,"activity, negative = inhibition",[2]; [16],inconclusive: -5.18%
Cc1cc(C)c(/C=C2\C(=O)Nc3ccccc32)[nH]1,Potency,[1],"inconclusive: 16.9 µM [activator, partial curve, poor fit]"
same,Potency,[2]; [16],"inconclusive: 16.9 µM [rising, partial curve, poor fit]"
same,Potency,[3],"inconclusive: 6.68 µM [cytotoxic, full curve]"
same,Potency,[4],"inconclusive: 10.6 µM [cytotoxic, partial curve]"
same,Potency,[5],"inconclusive: 0.1 µM [activator, full curve, poor fit]"
same,Potency,[6],"inconclusive: 28.2 µM [activator, single point]"
same,Potency,[7],inactive
same,Potency,[8],active: 1.44 µM
CCCCOCCOC(=O)COc1nc(Cl)c(Cl)cc1Cl,Potency,[1],"inconclusive: 43.6 µM [activator, single point]"
same,Potency,[3],inactive
same,Potency,[9],inactive
same,Potency,[10],"inconclusive: 27.3 µM [activator, single point]"
same,Potency,[7],"inconclusive: 35.6 µM [inhibitor, partial curve]"
same,Potency,[11],"inconclusive: 17.4 µM [inhibitor, partial curve]"
Nc1ncn([C@@H]2O[C@H](CO)[C@@H](O)[C@H]2O)c(=O)n1,"activity, negative = inhibition",[2]; at 35.3 µM (top of the series),inconclusive: 6.39%
same,"activity, negative = inhibition",[2]; at 76.8 µM (top of the series),inconclusive: 0.388%
same,Potency,[3],active: 3.06 µM and active: 3.76 µM
same,Potency,[7],inactive
C=C[C@](C)(O)CC[C@@H]1[C@@]2(C)CCCC(C)(C)[C@@H]2CC[C@@]1(C)O,Potency,[1],"inconclusive: 24.5 µM [activator, partial curve]"
same,Potency,[3],"inconclusive: 68.6 µM [cytotoxic, single point]"
same,Potency,[4],"inconclusive: 68.6 µM [cytotoxic, single point]"
same,Potency,[7],"inconclusive: 71 µM [inhibitor, partial curve]"
same,Potency,[11],"inconclusive: 49 µM [inhibitor, partial curve]"
COc1cccc2c1C(=O)c1c(O)c3c(c(O)c1C2=O)C[C@@](O)(C(C)=O)C[C@@H]3O[C@H]1C[C@H](N)[C@H](O)[C@H](C)O1,Potency,[2]; [16],inconclusive: 1.96 µM
same,"activity, negative = inhibition",[2]; [16],inconclusive: 29.6% [at 35.3 µM]
same,Potency,[12],active: 4.89 µM and active: 6.68 µM
same,Potency,[4],active: 30.8 µM and active: 4.22 µM
Oc1c(Cl)cc(Cl)cc1Sc1cc(Cl)cc(Cl)c1O,Potency,[1],"inconclusive: 19.5 µM [activator, partial curve] and active: 39.6 µM"
same,Potency,[2]; [16],"inconclusive: 19.5 µM [falling, partial curve]"
same,"activity, negative = inhibition",[2]; [16],inconclusive: -19%
same,Potency,[4],"inconclusive: 21.1 µM [cytotoxic, partial curve] [middle of 4 runs]"
same,Potency,[7],"inconclusive: 89.6 µM [inhibitor, single point]"
O=C(O)Cn1c(C(=O)Nc2nc(-c3ccccc3Cl)cs2)cc2ccccc21,Potency,[1],active: 3.79 µM
same,Potency,[2]; [16],inconclusive: 26.8 µM [fluorescent]
same,Potency,[9],"inconclusive: 18.8 µM [rising, partial curve]"
same,Potency,[13],inconclusive: 38.9 µM [inhibitor]
Oc1ccccc1O,Potency,[1],inactive
same,"activity, negative = inhibition",[2]; [16],inconclusive: 21.1% and inconclusive: 1.28%
same,Potency,[3],"inconclusive: 69.4 µM [cytotoxic, single point]"
same,Potency,[13],"inconclusive: 71.8 µM [inhibitor, partial curve]"
same,Potency,[8],"inconclusive: 64 µM [inhibitor, partial curve] and inactive"
same,Potency,[14],inactive
C[Si]1(C)O[Si](C)(C)O[Si](C)(C)O1,"activity, negative = inhibition",[2]; [16],inconclusive: -37.7%
COc1cc2c(c(OC)c1OC)-c1ccc(OC)c(=O)cc1[C@@H](NC(C)=O)CC2,"activity, negative = inhibition",[2]; at 35.3 µM (top of the series),inconclusive: 1.38%
same,"activity, negative = inhibition",[2]; at 76.8 µM (top of the series),inconclusive: -1.43% and inconclusive: 2.57%
same,Potency,[3],"inconclusive: 0.0376 µM [cytotoxic, full curve, poor fit]"
same,Potency,[10],active: 2.14 µM and active: 5.4 nM
same,Potency,[15],"inconclusive: 17.8 µM [activator, partial curve]"
same,Potency,[6],"inconclusive: 0.158 µM [activator, full curve, poor fit]"
same,Potency,[13],"inconclusive: 35.2 µM [inhibitor, partial curve]"
Cc1ccc(O)c([C@H](CCN(C(C)C)C(C)C)c2ccccc2)c1,Potency,[1],"inconclusive: 13.5 µM [activator, partial curve, poor fit]"
same,"activity, negative = inhibition",[2]; [16],inconclusive: -2.24% [at 35.3 µM]
same,Potency,[4],"inconclusive: 29.8 µM [cytotoxic, partial curve]"
same,Potency,[13],"inconclusive: 17.4 µM [inhibitor, full curve]"

# Reference: PubChem BioAssay (Tox21)
